Laboratory results taken from PubChem BioAssay AID652104 (National Center for Advancing Translational Sciences (NCATS), 2013).
Hit rate of the full screen: of about 410,000 compounds, about 7,200 (1.8%) were called active. The inconclusive results got no clear call from the source; some entries with a clear call stand among them for comparison. Calls follow the shape of the dose curve; as a rule, active = well fitted activation curve with a large enough effect; inconclusive = small, poorly fitted or top-dose-only effect, or another doubt; inactive = no such curve, though single readings can be large or run the other way. No potency is given beside an inconclusive call; the fits are too rough.

test: qHTS of TDP-43 Inhibitors; conditions: TDP-43 expressing yeast growth rescue, BacTiter-Glo, 24 h; growth rescue (activation): at 46.1 µM (top of the series) unless noted; also: nearly all actives have a fitted effect of over 50% in size; as to growth rescue (activation): % of control where 0% means no effect
Summary of the method: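 Cell-based yeast growth screen: TDP-43 expression induced in galactose, inoculum OD600=0.02 after raffinose pregrowth to mid-log. Read-out BacTiter-Glo luminescence at 24 hr, 30 deg C; inhibition of toxicity seen as signal increase.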
Potency is read from the fitted curve at half-maximal effect; tags tell the direction and shape of the fitted curve.

Structure (SMILES) | Potency | growth rescue (activation)
Cc1sc2nc(CN3CCOCC3)nc(NS(=O)(=O)c3cc(Cl)ccc3Cl)c2c1C | inconclusive [activator, single point] | –
Cc1cc(SCC(=O)N/N=C/c2ccc(O)c(O)c2)nc2ccccc12 | – | inactive: -2.68%
Cc1ccccc1Cn1c(-c2cccs2)nc2ccccc21 | inconclusive [activator, full curve] | –
Cc1cc(C)n(-c2nc3ccccc3c(=O)n2OCc2ccc(Cl)cc2)n1 | active: 11.2 µM | –
Cc1ccc(C(=O)c2cn(Cc3cc(C)ccc3C)c3nc(C)ccc3c2=O)cc1 | – | inactive: 26.5%
CC1(C(=O)NCc2ccc(Cl)cc2)CCN1C(=O)Cc1cccs1 (centres undefined) | inconclusive [activator, partial curve] | –
Fc1ccc(-n2nnc(-c3cccnc3)n2)cc1 | inconclusive [activator, single point] | –
COc1ccc(-c2cn3c(n2)sc2cc(C(=O)NCC(C)c4ccccc4)ccc23)cc1 (centres undefined) | inconclusive [activator, partial curve] | –
Cc1ccc(CNC(=O)Cn2cnc3c(NC(=O)OCc4ccccc4)ncnc32)o1 | inconclusive [activator, partial curve] | –
COc1ccc(C(=O)/C(=C\c2ccco2)N2C=CC=CC2=C(C#N)C#N)cc1 | inconclusive [activator, full curve, poor fit] | –
COc1ccc(NC(=O)N(Cc2cc3cc(C)ccc3[nH]c2=O)CC2CCCO2)cc1 (centres undefined) | – | inactive: -7%
COc1ccc(NC(=S)NC(=O)/C=C/c2ccco2)cc1 | inconclusive [activator, full curve] | –
COc1ccc(CCCNC(=O)C2Cc3c(-c4cccc(C(C)=O)c4)ccnc3O2)cc1 (centres undefined) | inconclusive [activator, single point] | –
CCOc1ccc(OCC)c(S(=O)(=O)N2CCCCC2)c1 | inconclusive [activator, single point] | –
NC(=O)CSc1nc2cc3c(cc2c(=O)n1CCCCCC(=O)NCc1ccc2c(c1)OCO2)OCO3 | – | inactive: 17.7%
CC(=O)c1cccc(NC(=O)CCS(=O)(=O)c2ccc3c(c2)n(C)c(=O)c(=O)n3C)c1 | inconclusive [activator, single point] | –
O=C(COc1ccccc1-c1ccccc1)N/N=C/c1ccncc1 | inconclusive [activator, single point] | –
COc1ccccc1CNc1nc2cc(-c3sccc3C)sc2c(=O)n1C | inconclusive [activator, partial curve] | –
CCCCn1nnnc1C(c1ccccc1)N1CCc2ccccc2C1 (centres undefined) | inconclusive [activator, partial curve] | –
CC(C)c1ccc(-c2noc(C3CCCN(S(C)(=O)=O)C3)n2)cc1 (centres undefined) | inconclusive [activator, partial curve, poor fit] | –
O=S(=O)(NCCOc1ccccc1F)c1cccc(Br)c1 | active: 12.6 µM | –
Cc1ccc(C)c(N2CCN(C(=O)c3ccc4nsnc4c3)CC2)c1 | active: 11.2 µM | –

Structure (SMILES) | Potency | growth rescue (activation)
Cc1ccc(-n2cnc3cc(C(=O)NC4CCCCCC4)ccc32)c(C)c1 | inconclusive [activator, single point] | –
CCCCCc1ccc(-c2ccc(=O)[nH]n2)cc1 | active: 17.8 µM | –
CSC1(SC2=NCCN2)SC2(NCCN2)S1 | inconclusive [activator, partial curve] | –
COc1cccc(C(O)c2nc(-c3ccc4ccccc4c3)cs2)c1 (centres undefined) | active: 22.4 µM | –
CC(=O)C(=Cc1cccc(C#N)c1)C(=O)c1ccccc1 | inconclusive [activator, full curve] | –
CCCCCN(C(=O)CCC(=O)OCC(=O)c1ccc(F)c(F)c1)c1c(N)n(CCCC)c(=O)[nH]c1=O | – | inactive: 11.2%
O=C1CC[C@H](OCc2ccccc2)CCN1[C@H](CSc1ccccc1)Cc1ccccc1 | inconclusive [activator, partial curve] | –
COc1cccc(CNC(=O)C2CCN(S(=O)(=O)c3ccc(Br)s3)CC2)c1 | inconclusive [activator, single point] | –
CCS(=O)(=O)n1nc(-c2ccco2)nc1NCc1ccc(C(C)C)cc1 | inconclusive [activator, single point] | –
O=C(CSc1nc(-c2ccc(F)cc2)cs1)N1CCN(C(=O)c2ccco2)CC1 | inconclusive [activator, single point] | –
CCOC(=O)c1c(/N=C/C2=C(O)CC(C)(C)CC2=O)sc2c1CCCC2 | inconclusive [activator, partial curve] | –
O=C(Cn1cc(SCc2cccc(Cl)c2)c2ccccc21)N1CCOCC1 | active: 35.5 µM | –
Cc1c(C(=O)NNC(=S)Nc2ccc(S(N)(=O)=O)cc2)oc2ccccc12 | inconclusive [activator, partial curve, poor fit] | –
Cc1ccc(C(=O)CSc2nccn2-c2ccccc2)cc1 | inconclusive [activator, partial curve] | –
COc1ccc([C@@H]2CC=C(C(=O)O)[C@H](c3ccc(C)cc3)N2S(=O)(=O)c2ccc(C)cc2)cc1OC | inconclusive [activator, single point] | –
O=C(NC(=S)NCCc1ccc(Cl)cc1)c1ccco1 | active: 14.1 µM | –
COc1ccccc1N(CC(=O)Nc1cc(C)on1)S(=O)(=O)c1cccc(C(F)(F)F)c1 | inconclusive [activator, partial curve] | –
CC1CN(C(=O)N2CCC(C(=O)NC3CCCCCC3)CC2)c2cc(Cl)ccc2O1 (centres undefined) | – | inactive: 0.783%
COc1ccc(-c2csc(COC(=O)C(C)(C)C)n2)cc1 | inconclusive [activator, single point] | –
Cc1c(C(=O)C(=O)NCCc2ccc(S(N)(=O)=O)cc2)c2ccccc2n1C | – | inactive: -9.31%
CC(C)Sc1nc2c(cnn2-c2ccccc2)c(=O)[nH]1 | – | inactive: 10.7%
COc1ccc(C(=O)Nc2nc3ccc(S(C)(=O)=O)cc3s2)cc1 | – | inactive: 5.34%
